Results taken from article PMC12136788.
This is one part of the list.

T1: UNK ZnF1-3 (human, UniProt Q9C0B0 31-174)
T1 sequence: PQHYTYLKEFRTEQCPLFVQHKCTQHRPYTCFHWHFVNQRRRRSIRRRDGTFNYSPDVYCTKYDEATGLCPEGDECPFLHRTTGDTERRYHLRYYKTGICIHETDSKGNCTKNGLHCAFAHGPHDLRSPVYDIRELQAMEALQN

B1: chr4:44140560:44140561:-_ENSMUSG00000035696_ENSMUST00000045793|mus_mus|FALSE|FALSE (ssRNA)
RNA: GGGAGUUCUACAGUCCGACGAUCUUAAGUAUUUCUGACACUAACACAAACCUAGGGGCAACAGAAUGUAGGUCAAAUCCUAUUUGUCUAACUAGGUAGAGGCAACAGUGUCUGGAAGAGGACAAAAUUGUGCUUCUGUGUGGACAACAGAGGAUUGAGCAUCA
B2: chr7:135333399:135333400:+_ENSG00000155561_ENST00000285968|hu_mus|motif|central (ssRNA)
RNA: GGGAGUUCUACAGUCCGACGAUCGUCCAUAUAUAAAGAAAGAAAUAGCAAAAUAUCUUUUGGUCAUAAUUUAGAAAUAAAGUCAUCGGUAAAAAAGAGGUGGUUCUCCUCAGUUCAUCUCUUCCACGGAAGAGAGUCAGUUCUCAACAGAGGAUUGAGCAUCA
B3: chr11:96086674:96086675:-_ENSG00000149231_ENST00000278520|hu_hu|FALSE|FALSE (ssRNA)
RNA: GGGAGUUCUACAGUCCGACGAUCUACAUCAGAUAAAAGUUUAAUUAGAGUGUAGAGUGCCACUUCACAGGAAUUAAGAUAAUCAUGUUUUAAACAAAAUAUUUUGCCAUGAAGAUAUAGAUAAAAUGUACAAACAUGUCACAUCAACAGAGGAUUGAGCAUCA
B4: 97191497_97194279_313_CDS_ENSMUSG00000031776_ENSMUST00000034228|mouse|control|control (ssRNA)
RNA: GGGAGUUCUACAGUCCGACGAUCUUCAAAUUCCUGGUAGUACUUGUCCAUGAAGUUUCUCUGCAAUAACUGGAACUCAUCAUCCAUAAUAAUGUCCUCUAAACAUCCAACCACAGCAUCAAAUUCUGCAUCAGAGGCGGAGGACAACAGAGGAUUGAGCAUCA
B5: chr1:158563958:158563959:+_ENSMUSG00000026596_ENSMUST00000166172|mus_mus|FALSE|FALSE (ssRNA)
RNA: GGGAGUUCUACAGUCCGACGAUCUGUCCAUUUAAUAGGAAAUUUGGCUCCAGCAUGAGCAGUGUAGGUAUCUCCAGUCAUCAGUCUACUUAAACCAAAGUCGGCCACUUUCACCACAUGGUUCUCGCCCACUAGGCAGUUCCGCAACAGAGGAUUGAGCAUCA
B6: chr1:231413285:231413286:+_ENSG00000116906_ENST00000366647|hu_hu|motif|central (ssRNA)
RNA: GGGAGUUCUACAGUCCGACGAUCGUUUGUUGUAAUGAGUCCUUCGAUGAGAGUAAUUACGUGACCGAAUUUUCCAUAACGGUUUGUUGAUUAUUAAAGUUUUGCAGUGGCUGGUUUUCCUAUUGGUGUCUUACAACCAAGCAUCAACAGAGGAUUGAGCAUCA
B7: 102631982_102632505_361_5pUTR_ENSG00000166681_ENST00000361298|human|control|control (ssRNA)
RNA: GGGAGUUCUACAGUCCGACGAUCCCUUCACCUCCUCCCAAAGGGCGGUCUUCCUCUCCAUUCUGCAUAGGCUGCUCCAUCUCUUCGUUUUCCUGGGCCUAUCCUUGCAGUCUCCUUCUCCUCCGGAUUCUCGCCGCGAGGUGCCAACAGAGGAUUGAGCAUCA
B8: chr14:76904430:76904431:+_ENSMUSG00000022010_ENSMUST00000022587|mus_mus|mus_mus_mus_hu_True|28_68 (ssRNA)
RNA: GGGAGUUCUACAGUCCGACGAUCUGCAGCCAAAAACACCCUCGUGGAAAAAAAGAGGGAACACCAGCAGCCUGGUUUAAGCUAGAUAAAAUCUUCUGGCUUUCCGCAGCUCAGGGCGAAACAGAAAACGGCAGCCCUAAUUUACAACAGAGGAUUGAGCAUCA
B9: chr14:89307221:89307222:+_ENSG00000165533_ENST00000346301|hu_mus|hu_hu_hu_mus_False|68_68 (ssRNA)
RNA: GGGAGUUCUACAGUCCGACGAUCUCCUGUUUGGUUAGUGCCAGGGAGCUUCAAAGAUGUGCCAGGGCGUGGAACUUGAGCAAUAGCAUUUUCAUCCAGGAUCAUUUCAGCAAUUCCUUCCUGGUCCACAUCAAUUUCAUCUAUCAACAGAGGAUUGAGCAUCA
B10: 83326916_83329933_2518_3pUTR_ENSMUSG00000034832_ENSMUST00000089622|mouse|control|control (ssRNA)
RNA: GGGAGUUCUACAGUCCGACGAUCGAUGCCGCACCAGGCACAGCAGCUUCUCCUCCAGUGUGUGUCUUCGGAUCACCCACUUGGCGAUGGGACAGCCUCGAGAACUCUUCCCCUCCUUGCCCGUGUAGAUGACCUUCUCAAUCCCAACAGAGGAUUGAGCAUCA
B11: chr7:7612872:7612873:+_ENSG00000164654_ENST00000405785|hu_mus|motif|central (ssRNA)
RNA: GGGAGUUCUACAGUCCGACGAUCCUUUGUCAAGGGCUUUGGUUGUUCAGUCAAAGUCAAAACUGGCUUCUCAAAUUUUCGGAGAUCCCAUAUUGCAACCUGACCUUCAUAGAAGGAAGCAACACGAUCGUGGAAGUAAGGGUCCAACAGAGGAUUGAGCAUCA
B12: chr3:141904083:141904084:-_ENSMUSG00000028273_ENSMUST00000029941|mus_hu|FALSE|FALSE (ssRNA)
RNA: GGGAGUUCUACAGUCCGACGAUCGUAUUCAGUUUGCUACUUUGUGUCACCCCUUGCCAUUCUUUUAUCCCCAGUUAAUUAUUAUCUGCAUAUAAUAUAAAUCUGCUAGACCAUAAAUUAACAGCUUUCAGGACAGAUGCCUUGCAACAGAGGAUUGAGCAUCA
B13: chr12:48362563:48362564:+_ENSG00000134291_ENST00000256686|hu_hu|hu_hu_hu_mus_False|18_98 (ssRNA)
RNA: GGGAGUUCUACAGUCCGACGAUCUCCGUCAAGCCCUUCAAGCCCCACUUGCGGGGGAAACUGUAAUCACUUUGUAUGGGGAAGGAAAAGAAACGCCAAAAACUUUCCAAAAAGCGGUUCAAAAAGCAGGCGGGAGGGGGAGGUCAACAGAGGAUUGAGCAUCA
B14: chr14:32000333:32000334:-_ENSMUSG00000021910_ENSMUST00000168206|mus_hu|FALSE|FALSE (ssRNA)
RNA: GGGAGUUCUACAGUCCGACGAUCGUCCCGGAGAUCCAGGUUGACCAGUGAGUAGAGCUUGUGCAGGCCACUCAGACUCUCUAGGAGGUUGCCUGCCAGGUUUAAGGUCUUGAUGUUCCCCAGCUUGGUGUGAAGCCCUUCCAACAACAGAGGAUUGAGCAUCA
B15: chr14:45599971:45599972:-_ENSG00000100442_ENST00000396062|hu_mus|FALSE|FALSE (ssRNA)
RNA: GGGAGUUCUACAGUCCGACGAUCAUAGGCAUUAACCAAAUGGUCCUUAUUAGCAGUCUUGGCAACAUUUUUGAUGUUUCCCAGUAAUUUAUGCUCUGCAAGAAACGAAUCUGAACCGUGAUCCUGCAGAAACUUGAUAAUGUCCAACAGAGGAUUGAGCAUCA
B16: 72380599_72380719_613_CDS_ENSMUSG00000037674_ENSMUST00000093820|mouse|control|control (ssRNA)
RNA: GGGAGUUCUACAGUCCGACGAUCUGGCAGAGCCACCCCGGGGUUGGGGGCGCUGAGGGGAAGCUGCUGAGGGGCAUCGAGCUGCUGUGGUGGCGGCUGUUGUUGUUCCUCUGCCAUCGCUGCUGGAGGGGAGGGAGGGAAGAUCAACAGAGGAUUGAGCAUCA
B17: chr11:77378495:77378496:-_ENSG00000048649_ENST00000308488|hu_mus|FALSE|FALSE (ssRNA)
RNA: GGGAGUUCUACAGUCCGACGAUCUGAAUAGUCAUCUGUGCUUCGGCCCCGUUUUCGAACAGAUCGCUUCGAUUCUUUUGUUAGCUCAUCAUCUUCAGAGUUCUUGGACAUAAAGCUCUCUUCACUCUCUGAGCUGGAAAGUCUCAACAGAGGAUUGAGCAUCA
B18: chr4:115894766:115894767:+_ENSMUSG00000028698_ENSMUST00000030464|mus_hu|mus_mus_mus_hu_True|18_28 (ssRNA)
RNA: GGGAGUUCUACAGUCCGACGAUCUUCCACACGGAAAUGUACUUCGGGUUUUCCAACGGCCAGUACCAGUCCGGCCAAACUACCCGAACAGGGUCCUCCCCCUCUCUUCUCUCCUCCUAAAGCACCCGCCCCCGAACUUUCAAGCAACAGAGGAUUGAGCAUCA
B19: chr11:46405157:46405158:+_ENSG00000110492_ENST00000395566|hu_hu|hu_hu_hu_mus_False|8_98 (ssRNA)
RNA: GGGAGUUCUACAGUCCGACGAUCCCCUCCCCACUUUGGCUGGGGAGUGUGGGCGUGAGAGGACAGGCGUGAUUGACAGAGCUGACAGGAAGACAAAAGGCACUGGUGGGUUAUAUCUUGGGCCUGUGAGAGGGAGGGGCUCCGCAACAGAGGAUUGAGCAUCA
B20: chr1:154246031:154246032:+_ENSG00000143575_ENST00000328703|hu_hu|motif|central (ssRNA)
RNA: GGGAGUUCUACAGUCCGACGAUCACCUGGAAGUUCAGGAGGAUGGGAAGGCAAGGUCCAGGCCCCCAUAUCGCUGAAGAUGCGGUUGAAAUCUCGUACUAGGUCAUCAAAGCCGAAGUUAUCGUGGAAACGUAUCCCUCCUCCCAACAGAGGAUUGAGCAUCA
B21: chr5:95152273:95152274:-_ENSG00000173221_ENST00000237858|hu_mus|FALSE|FALSE (ssRNA)
RNA: GGGAGUUCUACAGUCCGACGAUCCAGCCGAGUCAUCAGCUCCCCAGUCUGUUGCAUGGAGAUUAGAUCACUGCAUCCGCCUAUGCAGUCUUUACCUAUGAAGACCCGAGGAACUGUUCUCGCUCCGGUGAGCUGUUGUAAAUACAACAGAGGAUUGAGCAUCA
B22: chrX:20248820:20248821:+_ENSMUSG00000001924_ENSMUST00000001989|mus_mus|mus_mus_mus_hu_True|8_88 (ssRNA)
RNA: GGGAGUUCUACAGUCCGACGAUCGGCGAAGUCCGUCACCACAAAGUCAGGCUCUACCAGUGAGGCCACCAAGGAUUUAAAGCUAAUCUUCUUAGGUACUUUGACCUGACUGACGAUGCCUCCACGGAUGUAGUCAGAGAAGUUCAACAGAGGAUUGAGCAUCA

What follows are binders tested against T1, UNK ZnF1-3 (assay: nsRBNS (natural sequence RNA bind-n-seq); RBNS binding buffer (assumed for nsRBNS): 25 mM Tris pH 7.5, 150 mM KCl, 3 mM MgCl2, 0.01% Triton X-100, 500 ug/ml BSA, 20 U/ml SUPERase-In, 4 C; UNK is unkempt and MSI1 is Musashi-1; names of the RNAs are library labels; protein concentration not given here; high values mean tight binding).

Binder | binding signal [enrichment R]
B1 | 1.84
B2 | 1.75
B3 | 1.7
B4 | 1.44
B5 | 1
B6 | 0.781
B7 | 0.699
B8 | 1.67
B9 | 0.897
B10 | 1.04
B11 | 0.871
B12 | 1.01
B13 | 2.07
B14 | 1.18
B15 | 0.614
B16 | 1.79
B17 | 0.519
B18 | 0.815
B19 | 2.67
B20 | 1.31
B21 | 0.989
B22 | 1.07
